Results are given in words; binding and its absence hold for the method and conditions named. In cells and extracts the contact can be indirect. Some binding calls cover weakened binding; strength is not graded here.

Chains of the proteins cited; added tags and fusions are not shown.
UniProt Q5SNZ0: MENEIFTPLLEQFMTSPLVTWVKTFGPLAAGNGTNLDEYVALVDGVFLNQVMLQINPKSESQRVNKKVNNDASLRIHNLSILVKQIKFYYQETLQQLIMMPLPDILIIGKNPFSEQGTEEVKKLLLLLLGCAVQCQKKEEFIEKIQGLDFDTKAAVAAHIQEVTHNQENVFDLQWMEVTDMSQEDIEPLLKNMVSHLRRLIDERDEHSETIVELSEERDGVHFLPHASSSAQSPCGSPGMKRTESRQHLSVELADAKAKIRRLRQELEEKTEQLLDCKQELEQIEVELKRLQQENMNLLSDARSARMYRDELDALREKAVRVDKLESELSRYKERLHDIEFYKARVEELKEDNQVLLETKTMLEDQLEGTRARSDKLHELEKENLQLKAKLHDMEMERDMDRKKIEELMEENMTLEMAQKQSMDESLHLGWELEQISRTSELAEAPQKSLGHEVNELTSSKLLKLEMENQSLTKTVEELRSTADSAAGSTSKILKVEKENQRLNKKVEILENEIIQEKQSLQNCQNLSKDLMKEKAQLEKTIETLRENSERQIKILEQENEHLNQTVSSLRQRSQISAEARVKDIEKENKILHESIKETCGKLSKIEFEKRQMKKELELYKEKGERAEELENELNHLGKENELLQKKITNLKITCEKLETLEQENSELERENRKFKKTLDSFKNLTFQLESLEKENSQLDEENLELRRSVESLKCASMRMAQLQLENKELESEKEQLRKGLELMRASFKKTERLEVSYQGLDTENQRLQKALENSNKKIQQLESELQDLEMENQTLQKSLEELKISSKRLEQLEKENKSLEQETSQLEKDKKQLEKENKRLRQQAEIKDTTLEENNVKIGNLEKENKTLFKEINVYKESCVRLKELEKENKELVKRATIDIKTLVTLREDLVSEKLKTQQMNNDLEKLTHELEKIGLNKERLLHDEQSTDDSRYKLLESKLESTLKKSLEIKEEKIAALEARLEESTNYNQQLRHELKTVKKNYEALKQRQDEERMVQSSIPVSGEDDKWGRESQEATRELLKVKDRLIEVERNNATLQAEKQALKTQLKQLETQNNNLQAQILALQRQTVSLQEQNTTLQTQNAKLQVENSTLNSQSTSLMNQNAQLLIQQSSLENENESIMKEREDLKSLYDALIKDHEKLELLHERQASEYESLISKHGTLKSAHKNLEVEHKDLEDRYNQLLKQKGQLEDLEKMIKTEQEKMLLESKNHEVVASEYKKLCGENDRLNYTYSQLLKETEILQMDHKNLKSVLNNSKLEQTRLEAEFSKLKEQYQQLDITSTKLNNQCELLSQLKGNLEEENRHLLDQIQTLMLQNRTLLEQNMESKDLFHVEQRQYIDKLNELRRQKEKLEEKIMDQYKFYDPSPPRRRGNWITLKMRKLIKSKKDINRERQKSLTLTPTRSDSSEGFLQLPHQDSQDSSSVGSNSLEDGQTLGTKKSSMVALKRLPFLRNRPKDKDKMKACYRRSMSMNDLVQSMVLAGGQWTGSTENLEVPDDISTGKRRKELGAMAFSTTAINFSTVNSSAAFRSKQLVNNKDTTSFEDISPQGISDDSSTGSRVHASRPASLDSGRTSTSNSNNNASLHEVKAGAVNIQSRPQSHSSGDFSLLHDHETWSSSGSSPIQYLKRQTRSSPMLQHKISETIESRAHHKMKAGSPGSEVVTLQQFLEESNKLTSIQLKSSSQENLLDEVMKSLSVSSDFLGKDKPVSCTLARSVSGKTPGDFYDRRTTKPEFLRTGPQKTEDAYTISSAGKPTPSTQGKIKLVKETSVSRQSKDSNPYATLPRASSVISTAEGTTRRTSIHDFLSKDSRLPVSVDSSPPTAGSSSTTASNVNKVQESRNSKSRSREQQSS
UniProt P06240: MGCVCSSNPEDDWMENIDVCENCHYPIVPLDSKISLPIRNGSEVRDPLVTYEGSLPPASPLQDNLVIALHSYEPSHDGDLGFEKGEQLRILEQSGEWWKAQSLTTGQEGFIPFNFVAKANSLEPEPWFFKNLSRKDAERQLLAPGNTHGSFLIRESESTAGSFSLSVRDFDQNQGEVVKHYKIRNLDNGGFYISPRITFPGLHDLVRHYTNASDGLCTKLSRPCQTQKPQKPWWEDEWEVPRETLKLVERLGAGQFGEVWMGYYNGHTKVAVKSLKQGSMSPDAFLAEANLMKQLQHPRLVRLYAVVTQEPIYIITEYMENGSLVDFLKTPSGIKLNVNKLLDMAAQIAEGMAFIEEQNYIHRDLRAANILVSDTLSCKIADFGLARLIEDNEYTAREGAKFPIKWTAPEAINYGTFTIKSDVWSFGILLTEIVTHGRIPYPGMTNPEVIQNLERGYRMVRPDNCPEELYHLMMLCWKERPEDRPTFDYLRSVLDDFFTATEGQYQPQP
UniProt P39688: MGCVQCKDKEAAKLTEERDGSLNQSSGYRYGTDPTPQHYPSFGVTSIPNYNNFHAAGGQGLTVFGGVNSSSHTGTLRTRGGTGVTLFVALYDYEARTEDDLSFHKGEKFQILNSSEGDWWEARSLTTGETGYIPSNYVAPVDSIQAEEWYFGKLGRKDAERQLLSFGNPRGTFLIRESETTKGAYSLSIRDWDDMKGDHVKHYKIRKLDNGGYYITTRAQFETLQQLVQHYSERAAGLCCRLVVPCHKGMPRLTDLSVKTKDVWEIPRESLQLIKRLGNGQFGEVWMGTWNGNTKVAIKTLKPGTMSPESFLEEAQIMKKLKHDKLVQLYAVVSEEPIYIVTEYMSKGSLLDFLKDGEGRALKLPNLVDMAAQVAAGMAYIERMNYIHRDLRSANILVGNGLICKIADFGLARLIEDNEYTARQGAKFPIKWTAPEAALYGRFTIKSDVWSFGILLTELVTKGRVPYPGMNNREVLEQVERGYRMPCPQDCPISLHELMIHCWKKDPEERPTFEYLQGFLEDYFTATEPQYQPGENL
UniProt P25911: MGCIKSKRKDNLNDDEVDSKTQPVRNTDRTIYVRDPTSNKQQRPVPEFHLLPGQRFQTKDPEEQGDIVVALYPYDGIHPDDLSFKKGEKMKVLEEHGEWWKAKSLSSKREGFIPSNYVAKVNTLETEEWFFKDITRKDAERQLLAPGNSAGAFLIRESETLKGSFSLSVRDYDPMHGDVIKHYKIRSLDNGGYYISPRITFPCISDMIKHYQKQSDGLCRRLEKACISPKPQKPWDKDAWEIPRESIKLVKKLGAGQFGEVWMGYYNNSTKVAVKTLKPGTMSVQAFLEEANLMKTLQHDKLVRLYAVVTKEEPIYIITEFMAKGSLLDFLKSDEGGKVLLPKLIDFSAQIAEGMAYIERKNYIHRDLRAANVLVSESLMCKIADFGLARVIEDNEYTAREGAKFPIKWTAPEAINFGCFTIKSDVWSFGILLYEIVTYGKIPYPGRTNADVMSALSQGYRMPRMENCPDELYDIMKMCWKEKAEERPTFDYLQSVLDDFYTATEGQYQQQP

Assay [1] addresses T1, Nephrin (mouse (endogenous in MIN6 and mouse islets)) (UniProt Q9QZS7).
T1 sequence: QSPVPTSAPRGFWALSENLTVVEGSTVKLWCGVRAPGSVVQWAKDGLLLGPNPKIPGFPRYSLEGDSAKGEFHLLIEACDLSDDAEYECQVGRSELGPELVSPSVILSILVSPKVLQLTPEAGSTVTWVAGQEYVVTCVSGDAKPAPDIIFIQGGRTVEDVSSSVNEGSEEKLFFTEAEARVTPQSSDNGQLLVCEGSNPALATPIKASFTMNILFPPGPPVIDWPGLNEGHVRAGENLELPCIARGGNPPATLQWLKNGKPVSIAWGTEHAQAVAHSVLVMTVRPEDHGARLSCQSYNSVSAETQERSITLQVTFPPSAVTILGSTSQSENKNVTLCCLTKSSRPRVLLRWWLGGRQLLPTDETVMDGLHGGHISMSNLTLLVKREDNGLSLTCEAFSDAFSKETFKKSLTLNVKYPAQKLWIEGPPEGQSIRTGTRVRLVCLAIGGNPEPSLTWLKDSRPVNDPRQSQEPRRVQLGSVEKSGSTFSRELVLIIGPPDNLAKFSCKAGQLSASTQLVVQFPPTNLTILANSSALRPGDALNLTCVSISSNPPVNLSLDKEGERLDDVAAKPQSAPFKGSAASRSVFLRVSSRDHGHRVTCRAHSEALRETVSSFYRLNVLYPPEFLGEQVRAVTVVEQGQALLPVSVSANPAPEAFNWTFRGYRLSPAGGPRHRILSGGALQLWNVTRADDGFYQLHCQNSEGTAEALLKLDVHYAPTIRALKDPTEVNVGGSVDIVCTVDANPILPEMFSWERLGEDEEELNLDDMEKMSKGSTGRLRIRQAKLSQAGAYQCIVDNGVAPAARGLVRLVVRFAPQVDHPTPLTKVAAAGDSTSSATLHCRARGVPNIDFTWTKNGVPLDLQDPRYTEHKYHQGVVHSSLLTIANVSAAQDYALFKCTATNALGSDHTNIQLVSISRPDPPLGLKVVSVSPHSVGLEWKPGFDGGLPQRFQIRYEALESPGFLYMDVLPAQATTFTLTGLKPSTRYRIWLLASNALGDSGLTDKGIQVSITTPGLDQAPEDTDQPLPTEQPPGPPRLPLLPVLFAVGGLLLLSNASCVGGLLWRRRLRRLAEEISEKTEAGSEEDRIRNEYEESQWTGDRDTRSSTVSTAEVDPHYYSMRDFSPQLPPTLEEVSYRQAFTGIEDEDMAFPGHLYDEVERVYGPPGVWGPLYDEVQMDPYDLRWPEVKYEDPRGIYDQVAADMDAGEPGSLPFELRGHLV
The experiment in a line: co-IP; immunoprecipitation with anti-Nephrin antibody or control IgG from lysate (1 mg) of control (Ctrl-shRNA) MIN6 cells; blots with the indicated antibodies.

For assay [2], the target named is GIV protein (Girdin) (mouse (endogenous in MIN6 and mouse islets)) (UniProt Q5SNZ0). The experiment in a line: co-IP; immunoprecipitation from mouse pancreatic islet lysate (20 mM Tris-HCl pH 7.5, 150 mM NaCl, 1 mM MgCl2, 1% Triton X-100), Protein G-Sepharose; blot with anti-GIV and anti-Nephrin.
For assay [3] the target is unchanged. The experiment in a line: co-IP; immunoprecipitation with anti-GIV antibody or control IgG and Protein G-Sepharose from MIN6 cell lysate (20 mM Tris-HCl pH 7.5, 150 mM NaCl, 1 mM MgCl2, 1% Triton X-100); blot with anti-Nephrin; low and high glucose compared (Fig. S2B).

Take “Lck (from UniProt P06240 1-509) (enzyme)”: the binding entry in assay [1] is on record as “no binding”. The same measure, in the same setting: the same measure for “GIV protein (Girdin) (from UniProt Q5SNZ0 1-1873)”: “binds”; for “Fyn (from UniProt P39688 1-537) (enzyme)”: “no binding”; for “Lyn (from UniProt P25911 1-512) (enzyme)”: “no binding”.

B1: Nephrin (protein, UniProt Q9QZS7 37-1256)
chain: T1 sequence
For the molecule B1, the binding entry in assay [2] and in assay [3] was “binds” each time.
